About 6,400 (1.6%) of roughly 410,000 compounds were called active. Inconclusive results, whose numbers are uncertain, are shown with a selection of clear calls. Calls come from the whole dose curve; as a rule, active = well fitted inhibition curve with a large enough effect; inconclusive = small, poorly fitted or top-dose-only effect; inactive = no such curve, though single readings can be large or run the other way. Potencies of inconclusive entries are doubtful fits and often do not repeat.
Biological target: Glucagon-like peptide 1 receptor (Homo sapiens) (UniProt P43220)
Experiment: qHTS of GLP-1 Receptor Inverse Agonists (Inhibition Mode); note: nearly all actives have a fitted effect of over 55% in size
Details: HEK293 GLP-1R CRE-luciferase, luminescence, 24 h, GLP-1R form is constitutively active; activity change, negative = inhibition: at 38.3 µM (top of the series) unless noted
Outline: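 HEK293 cells stably co-expressing constitutively active GLP-1R and a cAMP-responsive luciferase reporter were seeded in DMEM with 10% Nu serum, given compounds after 12 h, and incubated 24 h at 37 deg C. Luminescence was then read.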
% is set by controls: 0 for no effect and ±100 for the full control effect; potency is the fitted concentration of half-maximal effect; tags give direction and shape of the fitted curve.

Sequence of UniProt P43220 (P43220 whole entry, looked up): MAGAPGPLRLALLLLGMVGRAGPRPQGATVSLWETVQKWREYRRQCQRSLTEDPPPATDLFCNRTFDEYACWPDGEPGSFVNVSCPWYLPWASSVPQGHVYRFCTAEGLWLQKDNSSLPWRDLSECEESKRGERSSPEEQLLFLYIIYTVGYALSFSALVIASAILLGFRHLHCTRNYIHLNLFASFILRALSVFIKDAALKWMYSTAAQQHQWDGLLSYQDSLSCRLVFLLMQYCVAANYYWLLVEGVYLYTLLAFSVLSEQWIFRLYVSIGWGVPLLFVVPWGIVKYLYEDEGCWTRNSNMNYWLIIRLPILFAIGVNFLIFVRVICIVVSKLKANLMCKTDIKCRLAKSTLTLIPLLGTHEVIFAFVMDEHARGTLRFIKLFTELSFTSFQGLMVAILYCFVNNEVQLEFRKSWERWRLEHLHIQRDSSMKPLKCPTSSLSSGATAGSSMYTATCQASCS

Potency, inconclusive:
CCc1ccc(NC(=O)C2CCN(S(=O)(=O)c3c(C)noc3/C=C\c3ccc(OC)cc3)CC2)cc1 22.4 µM [inhibitor, partial curve, poor fit]
NC(Cc1ccc(C(F)(F)F)cc1)c1csc(Nc2cc(NCc3ccco3)ncn2)n1 (centres undefined) 11.2 µM [inhibitor, partial curve, poor fit]
O=C(Nc1cccc(Cl)c1)N1CCC(CO)(CCOc2ccccc2)CC1 12.6 µM [inhibitor, partial curve, poor fit]
O=C(Nc1ccc(C(=O)N2CCOCC2)cc1)Nc1ccc(Cl)cc1Cl 6.31 µM [inhibitor, partial curve, poor fit]
O=C(Nc1cccc(S(=O)(=O)N2CCCCCC2)c1)c1ccc2ccccc2n1 12.6 µM [inhibitor, partial curve, poor fit]
O=C(NCCc1ccccc1)c1ccc(CSc2nc3ccncc3n2Cc2cccc(F)c2)cc1 11.2 µM [inhibitor, single point]
CCC(C)Sc1ccc([C@H]2N[C@@](CC(C)C)(C(=O)OC)[C@H]3C(=O)N(CC)C(=O)[C@@H]23)cc1 (some centres undefined) 11.2 µM [inhibitor, partial curve, poor fit]
CC(OC(=O)CC1CCCC1)C(=O)Nc1ccc(Cl)cn1 (centres undefined) 28.2 µM [inhibitor, single point]
CCOc1ccc(CNC(=O)CCc2cn(CC)c3ccccc23)cc1 12.6 µM [inhibitor, single point]
CC(=O)n1cc([C@H]2C=C(C(=O)N3CCN(Cc4ccccc4)CC3)O[C@@H](OCc3ccc(CO)cc3)C2)c2ccccc21 22.4 µM [inhibitor, single point]
COc1cccc(C(=O)NCC(c2ccc3c(c2)OCO3)N2CCN(c3ccc(F)cc3)CC2)c1 (centres undefined) 3.98 µM [inhibitor, partial curve, poor fit]
O=C(O)COc1cccc(/C=C2/SC(=S)N(Cc3ccccc3)C2=O)c1 1 µM [inhibitor, full curve, poor fit]
COc1cccc(CC(=O)Nc2ccc3c(c2)OC2(CCCC2)O3)c1 28.2 µM [inhibitor, single point]
Cc1nnc(SCCN2CCOCC2)n1C 28.2 µM [inhibitor, single point]
O=C(CN1CCN(CC(=O)Nc2ccccc2F)CC1)Nc1ccc(Cl)c(C(F)(F)F)c1 11.2 µM [inhibitor, single point]
Cc1ccccc1OCCNc1ccc(C(F)(F)F)cc1[N+](=O)[O-] 11.2 µM [inhibitor, single point]
CNc1nc(Nc2ccc(C(C)=O)cc2)nc(OC(C(F)(F)F)C(F)(F)F)n1 14.1 µM [inhibitor, single point]
CC(C)Cc1nc(NCCN2CCOCC2)c(C#N)c2c1COC(C)(C)C2 28.2 µM [inhibitor, single point]
Cc1ccccc1C(=O)NC(C(=O)Nc1nc2c(s1)CCCC2)C(C)C (centres undefined) 7.94 µM [inhibitor, partial curve]
Cc1ccc2c(c1)c1ncnc(N3CCc4ccccc4C3)c1n2C 22.4 µM [inhibitor, single point]
Fc1cccc(/C=N/Nc2ccccn2)c1 11.2 µM [inhibitor, single point]
COc1cc(OC)cc(C(=O)NCC2CCCN(Cc3ccc(SC)cc3)C2)c1 (centres undefined) 11.2 µM [inhibitor, partial curve, poor fit]
COc1ccc(-c2nn(-c3ccccc3)cc2/C=N/NC(N)=S)cc1OC 2 µM [inhibitor, partial curve, poor fit]
O=C(Cc1cccc(C(F)(F)F)c1)NCC(=O)Nc1cc(Cl)ccc1Cl 3.55 µM [inhibitor, full curve]
Cc1ccccc1NC(=S)NCc1ccc(Cl)cc1 31.6 µM [inhibitor, partial curve, poor fit]
CC1(Cc2ccccc2C#N)C(=O)Nc2ccc(OC(F)(F)F)cc21 (centres undefined) 11.2 µM [inhibitor, single point]
Cc1ccc(NC(=O)c2nc(S(=O)(=O)Cc3ccccc3)ncc2Cl)cc1 28.2 µM [inhibitor, single point]
CCN(CC)CCOCCOc1ccc(Cl)c2ccccc12 10 µM [inhibitor, partial curve, poor fit]
COc1ccc(-c2c(-c3ccc(OC)c(F)c3)c3ccccc3n2C)cc1 7.94 µM [inhibitor, partial curve, poor fit]
CC(=O)N1N=C(c2ccc(C(C)(C)C)cc2)OC1(C)C 10 µM [inhibitor, partial curve, poor fit]

Activity change, negative = inhibition, inactive:
CN(CC(=O)Nc1ccc(F)cc1)C(=O)c1ccc(OCc2ccccc2)cc1 -16.9%
Cc1ccc(C(=O)Oc2oc(-c3ccco3)nc2C=Nc2ccc(Cl)cc2)cc1 0%
Cn1nccc1C(=O)N(CCN1CCCCC1)CC1CCCN(C2CCCC2)C1 (centres undefined) -6.55%
CC1=C(c2ccc(C)c(C)c2)S(=O)(=O)N=C1N1CCC(C(=O)N2CCCCC2)CC1 -6.79%
CCN(CC)C(=O)C1=C(C)N(Cc2ccc(OC)cc2)C(=O)C(CC(=O)NCc2ccco2)C1 (centres undefined) -10.6%
CC(=O)Nc1cccc(OCC(=O)NS(=O)(=O)c2ccc(Cl)cc2)c1 42.1%
CN(C)CCN1CCN(C2CN(Cc3cn(Cc4ccccc4C(F)(F)F)nn3)S(=O)(=O)C2)CC1 (centres undefined) 23.3%
CCCN1C(=O)/C(=c2\sc3nc(=O)c(Cc4ccc(C)cc4)nn3c2=O)c2ccccc21 -19.5%
Nc1nc(SC2c3cccc4cccc(c34)C2NS(=O)(=O)c2ccccc2)n[nH]1 (centres undefined) 0.212%
